Results taken from the supplement of paper PMC4967469.

Assays:
Test in all cases: Viability of human cancer cell lines after 72 h of drug (GDSC screen)
(5Z)-7-Oxozeaenol = compound: COc1cc(O)c2c(c1)/C=C/C[C@H](O)[C@H](O)C(=O)/C=C\C[C@H](C)OC2=O [(5Z)-7-Oxozeaenol]; settings: top dose 10 µM; top dose inferred
Procedure: (§1)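 Human cancer cell lines in 384-well plates, medium with 10% serum, drug for 72 h over a 256-fold dose range (nine 2-fold or five 4-fold steps up to the top dose). Adherent lines were fixed and stained with the nucleic acid dye Syto60, suspension lines read with resazurin; signal relative to control wells, capped at 0 and 100%. One two-parameter sigmoid per drug and line, fitted in a mixed model over all curves with the slope shared within a line.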

ABT-888 = compound: C[C@]1(c2nc3c(C(N)=O)cccc3[nH]2)CCCN1 [ABT-888]; settings: top dose 5 µM; top dose inferred
Procedure: as §1

Zibotentan = compound: COc1nc(C)cnc1NS(=O)(=O)c1cccnc1-c1ccc(-c2nnco2)cc1 [Zibotentan]; settings: top dose 20 µM; top dose inferred
Procedure: as §1

Thapsigargin = compound: C/C=C(/C)C(=O)O[C@H]1C(C)=C2[C@H]([C@@H]1OC(=O)CCCCCCC)[C@@](C)(OC(C)=O)C[C@H](OC(=O)CCC)[C@@]1(O)[C@H]2OC(=O)[C@@]1(C)O [Thapsigargin]; settings: top dose 0.512 µM; top dose inferred
Procedure: as §1

GSK269962A = compound: CCn1c(-c2nonc2N)nc2cnc(Oc3cccc(NC(=O)c4ccc(OCCN5CCOCC5)cc4)c3)cc21 [GSK269962A]; settings: top dose inferred
Procedure: as §1

KU-55933 = compound: O=c1cc(-c2cccc3c2Sc2ccccc2S3)oc(N2CCOCC2)c1 [KU-55933]; settings: top dose 10 µM
Procedure: as §1

QL-X-138 = compound: C=CC(=O)Nc1cc(-n2c(=O)ccc3cnc4ccc(-c5cn[nH]c5)cc4c32)ccc1C [QL-X-138]; settings: top dose 10.24 µM; top dose inferred
Procedure: as §1

MPS-1-IN-1 = compound: COc1cc(N2CCC(O)CC2)ccc1Nc1cc(Nc2ccccc2S(=O)(=O)C(C)C)c2cc[nH]c2n1 [MPS-1-IN-1]; settings: top dose 20 µM; top dose inferred
Procedure: as §1

CP466722 = compound: COc1cc2ncnc(-n3nc(-c4ccccn4)nc3N)c2cc1OC [CP466722]; settings: top dose 16 µM; top dose inferred
Procedure: as §1

ABT-869 = compound: Cc1ccc(F)c(NC(=O)Nc2ccc(-c3cccc4[nH]nc(N)c34)cc2)c1 [ABT-869]; settings: top dose 1.024 µM; top dose inferred
Procedure: as §1

CMK = compound: Cc1ccc(-c2c(C(=O)CCl)n(CCCO)c3ncnc(N)c23)cc1 [CMK]; settings: top dose 4 µM; top dose inferred
Procedure: as §1

CHIR-99021 = compound: Cc1cnc(-c2cnc(NCCNc3ccc(C#N)cn3)nc2-c2ccc(Cl)cc2Cl)[nH]1 [CHIR-99021]
Procedure: as §1

Cytarabine = compound: Nc1ccn([C@@H]2O[C@H](CO)[C@@H](O)[C@@H]2O)c(=O)n1 [Cytarabine]; settings: top dose 2 µM
Procedure: as §1

[1] = top dose 2.5 µM, screen: GDSC drug entry 127
[2] = top dose 5 µM, screen: GDSC drug entry 1192
[3] = top dose 2.56 µM, screen: GDSC drug entry 154
[4] = top dose 10 µM, screen: GDSC drug entry 1241, top dose inferred

Cell Line | AUC ((5Z)-7-Oxozeaenol) | pIC50 ((5Z)-7-Oxozeaenol) | AUC (ABT-888) | pIC50 (ABT-888) | AUC (Zibotentan) | pIC50 (Zibotentan) | AUC (Thapsigargin) | pIC50 (Thapsigargin) | AUC (GSK269962A; [1]) | pIC50 (GSK269962A; [1]) | AUC (GSK269962A; [2]) | pIC50 (GSK269962A; [2]) | AUC (KU-55933) | pIC50 (KU-55933) | AUC (QL-X-138) | pIC50 (QL-X-138) | AUC (MPS-1-IN-1) | pIC50 (MPS-1-IN-1) | AUC (CP466722) | pIC50 (CP466722) | AUC (ABT-869) | pIC50 (ABT-869) | AUC (CMK) | pIC50 (CMK) | AUC (CHIR-99021; [3]) | pIC50 (CHIR-99021; [3]) | AUC (CHIR-99021; [4]) | pIC50 (CHIR-99021; [4]) | AUC (Cytarabine) | pIC50 (Cytarabine)
MN-60 (B-cell leukaemia, suspension) | 0.738 | 5.51 | 0.984 | < 5.30 | 0.988 | < 4.70 | 0.615 | 7.17 | 0.984 | < 5.60 | 0.91 | < 5.30 | 0.985 | < 5.00 | 0.522 | 6.13 | 0.965 | < 4.70 | 0.78 | 5.16 | 0.979 | < 5.99 | 0.967 | < 5.40 | 0.987 | < 5.59 | 0.973 | < 5.00 | 0.961 | < 5.70
MOLP-8 (myeloma, suspension) | 0.517 | 6.16 | 0.983 | < 5.30 | 0.967 | < 4.70 | 0.213 | 8.32 | 0.945 | < 5.60 | 0.724 | 5.88 | 0.965 | < 5.00 | 0.284 | 6.79 | 0.669 | 5.44 | 0.663 | 5.56 | 0.987 | < 5.99 | 0.754 | 5.89 | 0.986 | < 5.59 | 0.972 | < 5.00 | 0.868 | 5.77
MOLT-4 (lymphoblastic leukaemia, suspension) | 0.54 | 6.10 | 0.974 | < 5.30 | 0.991 | < 4.70 | 0.557 | 7.35 | 0.974 | < 5.60 | 0.769 | 5.81 | 0.916 | < 5.00 | 0.727 | 5.61 | 0.814 | 5.07 | 0.59 | 5.77 | 0.982 | < 5.99 | 0.983 | < 5.40 | 0.99 | < 5.59 | 0.975 | < 5.00 | 0.357 | 7.26
MONO-MAC-6 (acute myeloid leukaemia, suspension) | 0.165 | 7.26 | 0.982 | < 5.30 | 0.975 | < 4.70 | 0.19 | 8.45 | 0.975 | < 5.60 | 0.816 | 5.53 | 0.888 | < 5.00 | 0.733 | 5.51 | 0.817 | 4.92 | 0.464 | 6.10 | 0.313 | 7.73 | 0.882 | < 5.40 | 0.98 | < 5.59 | 0.981 | < 5.00 | 0.816 | 5.92
MPP-89 (mesothelioma, adherent) | 0.684 | 5.62 | 0.981 | < 5.30 | 0.971 | < 4.70 | 0.358 | 7.94 | 0.735 | 6.04 | 0.769 | 5.61 | 0.958 | < 5.00 | 0.848 | < 4.99 | 0.927 | < 4.70 | 0.89 | < 4.80 | 0.981 | < 5.99 | 0.955 | < 5.40 | 0.957 | < 5.59 | 0.916 | < 5.00 | 0.769 | 6.01
MRK-nu-1 (breast, suspension) | 0.822 | 5.28 | 0.977 | < 5.30 | 0.99 | < 4.70 | 0.459 | 7.60 | 0.693 | 6.29 | 0.728 | 5.89 | 0.989 | < 5.00 | 0.819 | 5.28 | 0.869 | 4.80 | 0.938 | < 4.80 | 0.99 | < 5.99 | 0.782 | 5.82 | 0.987 | < 5.59 | 0.987 | < 5.00 | 0.99 | < 5.70
MS-1 (small cell lung carcinoma, suspension) | 0.808 | 5.34 | 0.989 | < 5.30 | 0.991 | < 4.70 | 0.435 | 7.66 | 0.991 | < 5.60 | 0.967 | < 5.30 | 0.965 | < 5.00 | 0.742 | 5.54 | 0.756 | 5.21 | 0.85 | 4.99 | 0.988 | < 5.99 | 0.918 | < 5.40 | 0.991 | < 5.59 | 0.991 | < 5.00 | 0.97 | < 5.70
MZ1-PC (pancreas, adherent) | 0.679 | 5.65 | 0.981 | < 5.30 | 0.969 | < 4.70 | 0.165 | 8.65 | 0.981 | < 5.60 | 0.957 | < 5.30 | 0.961 | < 5.00 | 0.721 | 5.49 | 0.686 | 5.32 | 0.682 | 5.43 | 0.981 | < 5.99 | 0.826 | 5.49 | 0.955 | < 5.59 | 0.916 | < 5.00 | 0.824 | 5.80
MZ2-MEL (melanoma, adherent) | 0.593 | 5.93 | 0.952 | < 5.30 | 0.978 | < 4.70 | 0.236 | 8.33 | 0.966 | < 5.60 | 0.937 | < 5.30 | 0.934 | < 5.00 | 0.479 | 6.25 | 0.783 | 5.00 | 0.676 | 5.47 | 0.962 | < 5.99 | 0.92 | < 5.40 | 0.902 | < 5.59 | 0.921 | < 5.00 | 0.42 | 7.14

pIC50: −log10 of the molar value. The IC50 comes from the fitted curve, where viability falls to half of the control; a fit beyond the top or the lowest dose is shown as a bound at that dose. AUC sums up the same curve from the lowest dose to the 256-fold higher top dose; it is 1 without any effect and falls as sensitivity rises. For part of these data: Any top dose called inferred is not printed in the source and was worked back from the curve model. For part of these data: Where an entry number is given, a second screen of the drug exists; the two often differ.
